According to PubChem BioAssay AID445 (National Center for Advancing Translational Sciences (NCATS), 2006):
The campaign covered roughly 110,000 compounds. About 40 (0.04%) were called active. Inconclusive means that the source gave no clear call. Such entries were picked first, then a sample of the others. Calls follow the shape of the dose curve; as a rule, active = well fitted curve in the direction sought with a large enough effect in the signal ratio (not every such curve was filed as active); inconclusive = small, poorly fitted or top-dose-only effect, or a change in a side signal; inactive = flat fitted curve, though single readings scatter; the % refers to the signal ratio. Potencies of inconclusive entries are doubtful fits and often do not repeat.

Assay: IkB Signaling;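 as to IkBa stabilization activation: 0% = basal untreated cells and 100% = reference inhibitor full response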
Conditions: ABC-DLBCL IkBa-CBG/CBR dual luciferase ratio (green luciferase fused to IkBa over red control in OCI-Ly3 lymphoma cells), 4 h; IkBa stabilization activation: at 57.1 µM (top of the series), scaled: untreated 0%, proteasome inhibitor 100% unless noted
How it was run: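 Curves were fitted separately to fusion (green), unfused (red) and ratio luminescence, then classed by r2, magnitude and activity. Cells: OCI-Ly3, 4 h compound plus doxycycline at 37C; 10 uM MG-132 defined full response.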
Potency is read from the fitted curve at half-maximal effect.

| SMILES | IkBa stabilization activation | Potency |
| --- | --- | --- |
| CCC(=O)Nc1nonc1-c1nc2ccccc2n1CC(C)C | inactive: 0.356% | – |
| Cn1nnnc1SCc1ccc(C(=O)Nc2nccs2)cc1 | inactive: -0.96% | – |
| CCCOc1cccc(NC(=O)c2cc(C)oc2C)c1 | inconclusive: 5.31% [signal inhibitor] | – |
| CCn1cc(CNC(=O)c2cc(-c3ccc(C)c(C)c3)nc3ccccc23)c(C)n1 | inconclusive: 4.53% [signal inhibitor] | – |
| COc1ccc(C(=O)Nc2cc(OC)ccc2OC)cc1 | inconclusive: -0.172% [signal inhibitor] | – |
| COCc1cc(=O)n2c(-c3ccccc3OC)n[nH]c2n1 | inconclusive: 14.7% [signal inhibitor] | – |
| Cc1cccc(C(c2sc3nc(-c4ccco4)nn3c2O)N2CCN(c3ccccc3)CC2)c1 (stereo not given) | inactive: 2.76% | – |
| CCOc1ccccc1CNS(=O)(=O)c1ccc(-c2coc(C)n2)cc1 | inconclusive: 6.31% [signal inhibitor] | – |
| O=C(Nc1cccc(Oc2ccc3c(c2)C(=O)NC3=O)c1)c1ccco1 | – | inconclusive: 2.51 µM [signal inhibitor, full curve] |
| COCCN1C(=O)c2[nH]nc(-c3ccccc3O)c2C1c1ccc(Cl)c(Cl)c1 (stereo not given) | inconclusive: -2.77% [signal inhibitor] | – |
| CCOC(=O)c1ccc(CNS(=O)(=O)c2c(C)ccc3nsnc23)o1 | inactive: -0.175% | – |
| Cc1ccc(CN(Cc2ccco2)C(=O)COc2cc(C)c(Cl)c(C)c2)cc1 | inconclusive: -0.621% [signal inhibitor] | – |
| CN1CCN(c2ncc3ncc(=O)n(Cc4ccc(F)cc4)c3n2)CC1 | inactive: -2.36% [at 11.4 µM, scaled: untreated 0%, proteasome inhibitor 100%] | – |
| Cc1ccc(NC(=O)/C=C/c2ccc(C)o2)c(C)c1 | inactive: 5.07% | – |
| Cc1cc(C(=O)CNCc2ccco2)c(C)n1-c1ccc(F)cc1 | inconclusive: 8.22% [signal inhibitor] | – |
| CSc1ccc(Cl)c(C(=O)NCc2ccco2)c1 | inactive: 6.63% | – |
| CCN(CC)c1cc(C)c2cc(NC(=O)c3ccccc3OC)ccc2n1 | inconclusive: 7.36% [signal inhibitor] | – |
| O=C(Nc1nc(-c2cccs2)cs1)c1ccc(S(=O)(=O)N2CCCCC2)cc1 | inconclusive: 1.93% [signal inhibitor] | – |
| CSc1ccccc1NC(=O)CSc1nnnn1-c1ccccc1SC | inconclusive: 5.52% [signal inhibitor] | – |
| Cc1cc(C)c(NC(=O)CSc2nc3nc(C)cc(C)n3n2)c(C)c1 | inactive: -3.9% | – |
| Cc1cc(C)c(NC(=O)CSc2ccc(-c3sc(-c4ccccc4)nc3C)nn2)c(C)c1 | inactive: -1.67% | – |
| O=C(Cn1ncc2c(=O)oc3ccccc3c21)NC1CC1 | inconclusive: 14.4% [signal inhibitor] | – |
| CC[C@H](C)C(=O)O[C@@H]1CCC=C2C=C[C@H](C)[C@@H](CC[C@H]3C[C@@H](O)CC(=O)O3)[C@H]21 | inactive: 2.21% | – |
| COc1cc(O)c2c(O)c3c(c4c2c1[C@@]1(C4)C(C)=CCCC1(C)C)[C@H](O)[C@@]1(O)CC(=O)C(C(N)=O)=C(O)[C@]1(O)C3=O | inactive: 6.99% [at 11.4 µM, scaled: untreated 0%, proteasome inhibitor 100%] | – |

| SMILES | IkBa stabilization activation | Potency |
| --- | --- | --- |
| CCn1c(=O)c2sccc2n2c(CCCC(=O)N3CCN(c4cc(Cl)ccc4C)CC3)nnc12 | inconclusive: 1.8% [signal inhibitor] | – |
| O=C(CSc1nc(-c2ccc(F)cc2)[nH]c1-c1ccccc1)NCC1CCCO1 (stereo not given) | inconclusive: 7.9% [signal inhibitor] | – |
| N#CC1=C(N)SC(N)=C(C#N)C1Cc1ccccc1 | inconclusive: 11.7% [signal inhibitor] | – |
| COc1ccccc1N1CCN(c2ncccc2-c2nc(-c3ccc(Cl)cc3)no2)CC1 | inconclusive: 0.0802% [signal inhibitor] | – |
| CC1CCN(C(=O)CSc2nc(-c3ccccc3)no2)CC1 | – | inconclusive: 6.31 µM [signal inhibitor, partial curve] |
| COc1cc(C(=O)N2CCC(c3nc4ccccc4o3)CC2)cc(OC)c1OC | inconclusive: 1.3% [signal inhibitor] | – |
| Cc1c(NS(=O)(=O)c2ccccc2)cc(C(C)C)c(O)c1S(=O)(=O)c1ccc(Cl)cc1 | inconclusive: 0.741% [signal inhibitor] | – |
| COCCCn1c(=NC(=O)c2ccc3c(c2)OCO3)c(C#N)cc2c(=O)n3cccc(C)c3nc21 | inactive: -0.74% | – |
| CC(=O)c1c(C)[nH]c(C(=O)NCc2ccccn2)c1C | inactive: 1.26% | – |
| COc1cc(Cl)c(C)cc1NC(=O)c1ccc2c(Cl)c3c(nc2c1)CCC3 | inactive: -0.356% | – |
| CCOc1ccc(C(=O)c2cn(Cc3ccccc3OC)c3ccc(F)cc3c2=O)cc1 | inconclusive: -0.283% [signal inhibitor] | – |
| CC(=O)Nc1ccc(NC(=O)CSc2nc3ccccc3nc2N2CCOCC2)cc1 | inconclusive: 3.24% [signal inhibitor] | – |
| COc1ccc(-n2c(CC3C(=O)N(C)c4ccc(C)cc43)nc3ccccc3c2=O)cc1 (stereo not given) | inactive: 0.948% | – |
| COc1ccc(C(c2nnnn2C2CCCC2)N2CCc3ccccc3C2)cc1OC (stereo not given) | inconclusive: 2.35% [signal inhibitor] | – |
| Oc1c(-c2cc(-c3ccco3)[nH]n2)ccc2ccccc12 | – | inconclusive: 20 µM [signal inhibitor, partial curve] |
| COCCn1c(SCc2csc(-c3ccccc3)n2)nc2ccccc21 | inconclusive: -1.47% [signal inhibitor] | – |
| Cc1cccc(N2CCCn3c2nc2c3c(=O)n(CC(=O)OCc3ccccc3)c(=O)n2C)c1 | inconclusive: 2.02% [signal inhibitor] | – |
| COc1ccc(CCNc2ncnc3c2cnn3-c2ccc(C)cc2)cc1 | inconclusive: 2.4% [signal inhibitor] | – |
| OC(COc1ccc(Cl)c2ccccc12)CN1CCN(c2ccccn2)CC1 (stereo not given) | inconclusive: -8.87% [signal inhibitor] | – |
| CN1C(=O)c2ccccc2Sc2ccc(NC(=O)COc3ccc(F)cc3)cc21 | inconclusive: 4.46% [signal inhibitor] | – |
| CC(C)Cn1c(N)c(C(=O)COC(=O)c2cc(-c3ccco3)nc3ccccc23)c(=O)n(C)c1=O | inactive: 1.34% | – |
| COc1ccc(-c2noc(CNC(=O)c3ccco3)n2)cc1 | inactive: -1.92% | – |
| COC(=O)c1ccc(OCC2c3cc(OC)c(OC)cc3CCN2C(=O)c2cccc(C)c2)cc1 (stereo not given) | inconclusive: -2.86% [signal inhibitor] | – |
| COc1cccc(N2CCN(C(=O)CN3CCSc4ccc(S(=O)(=O)N(C)C)cc43)CC2)c1 | inconclusive: 1.46% [signal inhibitor] | – |

| SMILES | IkBa stabilization activation | Potency |
| --- | --- | --- |
| CC(C)CCNC(=O)NC(=O)CSc1nnc(COc2ccccc2Cl)o1 | inconclusive: 1.97% [signal inhibitor] | – |
| Cc1ccc2c(c1)N(CC(=O)N(Cc1ccc3c(c1)OCO3)CC1CCCO1)C(=O)C(C)O2 (stereo not given) | inactive: -1.25% | – |
| Clc1ccc(C2=Nn3c(nnc3-c3n[nH]c4c3CCC4)SC2)cc1 | inactive: -0.0955% | – |
| O=C(Cn1nc(Cc2cccnc2)c2ccccc2c1=O)N1CCN(c2ccc(F)cc2)CC1 | inconclusive: -0.396% [signal inhibitor] | – |
| COc1ccc(Nc2ncnc3onc(C)c23)cc1Cl | inconclusive: -0.421% [signal inhibitor] | – |
| CCCSCCCNC(=O)C1CCCN(C(=O)c2cnn(-c3ccccc3)c2-n2cccc2)C1 (stereo not given) | inconclusive: -0.347% [signal inhibitor] | – |
| Cc1noc(NS(=O)(=O)c2ccc(N3Cc4ccccc4C3=O)cc2)c1C | inactive: -0.6% | – |
| NC(=O)CSc1nc2scc(-c3ccco3)c2c(=O)n1-c1ccccc1 | inactive: -0.404% | – |
| Cc1ccc(-c2nn3c(-c4ccco4)nnc3c3ccccc23)cc1S(=O)(=O)NCC1CCCO1 (stereo not given) | inactive: -2.73% | – |
| Cc1ccc(CCNC(=O)c2ccc3c(c2)N(Cc2cc(C)ccc2C)C(=O)c2ccccc2S3=O)cc1 (stereo not given) | inconclusive: -1.85% [signal inhibitor] | – |
| Cc1cc(C)cc(NS(=O)(=O)c2ccc(-c3cc(C)no3)cc2)c1 | inconclusive: 1.84% [signal inhibitor] | – |
| CCOC(=O)c1cccc(NS(=O)(=O)c2cc(Br)cc3c2N(C(=O)C2CC2)CC3)c1 | inconclusive: 10.1% [signal inhibitor] | – |
| O=C(CCNS(=O)(=O)c1cccc2nsnc12)Nc1ccc(F)cc1 | inconclusive: 4.98% [signal inhibitor] | – |
| O=C(CC1(O)C(=O)N(Cc2ccccc2)c2ccccc21)c1ccncc1 (stereo not given) | inactive: -0.0355% | – |
| Cc1csc2nc(-c3cccc(NC(=O)c4ccc(S(N)(=O)=O)cc4)c3)cn12 | inconclusive: 3.42% [signal inhibitor] | – |
| Cc1ccc(S(=O)(=O)N(CC(=O)NCc2ccco2)Cc2ccc(F)cc2)cc1 | inconclusive: 4.06% [signal inhibitor] | – |
| COc1ccccc1/C=C(\C#N)c1nc(-c2cc3ccccc3oc2=O)cs1 | inconclusive: 9.19% [signal inhibitor] | – |
| CCC(=O)Nc1ccc(S(=O)(=O)NCc2cccn2Cc2cccc(C)c2)cc1 | inconclusive: 3.8% [signal inhibitor] | – |
| C=CCN1CCc2c(cc(O)c(O)c2Br)[C@H](c2ccccc2)C1 | inactive: 5.21% | – |
| CCc1ccccc1NC(=O)CSc1ncc2c(n1)-c1ccccc1N(C)S2(=O)=O | – | inconclusive: 31.6 µM [rising, single point] |
| COc1cc(-c2nc3cnccn3c2Nc2ccccc2)ccc1O | inconclusive: -4.97% [signal inhibitor] | – |
| Cc1ccc(C)c(N2CCN(CCCNc3ncnc4onc(-c5ccc(Cl)cc5)c34)CC2)c1 | inconclusive: 3.04% [signal inhibitor] | – |
